Test results reported in PubChem BioAssay AID686978 (National Center for Advancing Translational Sciences (NCATS), 2013).
Several values for one entry are separate records, joined by “and”; a condition that tells them apart may be missing. Equal values may be shown once. Screen size: about 420,000 compounds; about 64,000 (15%) were called active. Inconclusive results, whose numbers are uncertain, are shown with a selection of clear calls. The call rests on the fitted dose curve; in most records, active means well fitted inhibition curve with a large enough effect; inconclusive means small, poorly fitted or top-dose-only effect; inactive means flat fitted curve, though single readings scatter. Potencies of inconclusive entries are doubtful fits and often do not repeat.
On the % scale 0 is the no-effect control and ±100 the full control effect; potency means the concentration at half of the fitted maximal effect; tags describe the fitted curve by direction and shape.

Experiment: qHTS for Inhibitors of human tyrosyl-DNA phosphodiesterase 1 (TDP1): qHTS in cells in absence of CPT; further: nearly all actives have a fitted effect of over 55% in size
Settings: DT40 Tdp1-/- hTDP1 cells, no CPT, ATP luminescence, 48 h; activity change, negative = growth inhibition: at 46.2 µM (top of the series)
Outline: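 Stably hTDP1-transfected Tdp1-null chicken DT40 cells were treated with library compounds minus camptothecin and grown for at least 48 hr at 37 °C, after which cellular ATP was quantified by luminescence.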
In the case of `COc1ccc(S(=O)(=O)Nc2ccncc2)c(C)c1C`, the Potency is reported as inconclusive: 18.4 µM [inhibitor, partial curve].
For `C#CCOC(=O)c1ccccc1C(=O)n1nnc2ccccc21`, the Potency was inconclusive: 25.9 µM [inhibitor, single point].
For `CC1CCN(C(=S)NC(=O)c2ccccc2Br)CC1`, the Potency was inconclusive: 18.4 µM [inhibitor, single point].
With `CSc1nc2cc(Cl)ccc2s1` the Potency was “inactive”.
For `CN(C1CCCC1)C1CCN(C(=O)CNC(=O)/C=C/c2ccc(F)cc2)CC1`, the Potency was inconclusive: 25.9 µM [inhibitor, single point].
With `CCCCNc1c(-c2ccc(OC)c(SC3CCCCC3)c2)nc2cc(C)ccn12` the Potency was active: 14.6 µM.
For `CC(=O)Nc1cc(-c2ccccc2)ccc1O`, the Potency was inconclusive: 14.6 µM [inhibitor, partial curve, poor fit].
For `CC(Oc1cccc(Cl)c1)C(=O)Nc1cc(S(=O)(=O)N2CCCCC2)ccc1N1CCOCC1` (centres undefined), the Potency was inconclusive: 16.4 µM [inhibitor, single point].
With `Cc1ccc(C)c(Cn2nnc3c(=O)[nH]c(C(=O)Nc4ccc(F)cc4)nc32)c1` the Potency was active: 16.4 µM.
For `COc1cc(/C=C2\CC/C(=C\c3cc(OC)c(O)c(OC)c3)C2=O)cc(OC)c1O`, the Potency was active: 5.8 µM.
In the case of `COC(=O)C1=CN(Cc2ccc(OC)c(OC)c2)C=C(C(=O)OC)C1c1cccc(OC)c1OC`, the Potency is reported as inconclusive: 29.1 µM [inhibitor, single point].
With `CC(NCc1ccccc1Cl)C(=O)Nc1ccc(S(=O)(=O)N2CCCC2)cc1` (centres undefined) the Potency was inconclusive: 20.6 µM [inhibitor, single point].
With `O=C(COc1cccnc1[N+](=O)[O-])Nc1cccc(S(=O)(=O)N2CCOCC2)c1` the Potency was inconclusive: 0.58 µM [inhibitor, full curve, poor fit].
With `Cc1occc1-c1nnc(SCCCC(=O)c2ccc(F)cc2)n1C` the Potency was active: 16.4 µM.
With `CCOc1ccccc1Nc1sc(C(=O)c2ccccc2)c(N)c1C(=O)Nc1ccccc1` the Potency was active: 9.2 µM.
For `CCn1ncc(NC(=S)NCCc2ccc(OC)c(OC)c2)c1C(N)=O`, the Potency was “inactive”.
For `COc1ccc(Nc2cccc3ccccc23)cc1`, the Potency was inconclusive: 23.1 µM [inhibitor, single point].
With `CCN(CC)c1ccc(N=CN2CCOCC2)cc1` the Potency was “inactive”.
For `CC1(c2nc3ccccc3[nH]2)c2ccccc2C(=O)N1Cc1ccccc1` (centres undefined), the Potency was inconclusive: 18.4 µM [inhibitor, single point].
With `Cc1noc(C)c1CSc1nc2sc3c(c2c(=O)n1C)CCCC3` the Potency was inconclusive: 29.1 µM [inhibitor, single point].
In the case of `C=CCn1c(SCC(=O)NCC(=O)OCC)nnc1-c1cccc(OC)c1`, the Potency is reported as “inactive”.
For `Cc1cc(C)cc(OCC(=O)OC(C)C(=O)Nc2ccc(Cl)cn2)c1` (centres undefined), the Potency was “inactive”.
In the case of `CCN1C(=O)c2ccccc2Sc2ccc(C(=O)O)cc21`, the Potency is reported as “inactive”.
With `O=C(NCc1nnc2n1CCN(Cc1ccc(C(F)(F)F)cc1)CC2)c1cccc(F)c1` the Potency was inconclusive: 29.1 µM [inhibitor, single point].
For `CCC1CCCCN1C(=O)CCCc1ccccc1` (centres undefined), the Potency was “inactive”.
With `Cc1cc(SCNC(=O)c2ccccc2)ncn1` the Potency was inconclusive: 35.5 µM [inhibitor, single point].
For `Cn1cc(/C=N/n2cnc3scc(-c4ccc(Cl)cc4)c3c2=O)c2ccccc21`, the Potency was active: 0.82 µM.
In the case of `CN1/C(=C/C(=S)NC(=O)C2(C)CC2(Cl)Cl)C(C)(C)c2ccccc21` (centres undefined), the Potency is reported as active: 23.1 µM.
With `CCOc1ccc(C(C)(C)C)cc1S(=O)(=O)N1CCOCC1` the Potency was inconclusive: 8.2 µM [inhibitor, partial curve].
With `COc1cccc(-c2ccc3ncnc(NCc4ccccc4)c3c2)c1` the Potency was active: 20.6 µM.
With `CN(Cc1ccc(Cl)cc1)C(=O)c1ccccc1SCC(=O)N1CCCC1` the Potency was inconclusive: 20.6 µM [inhibitor, single point].
In the case of `COc1cc(OC)cc(-c2n[nH]c(=S)n2-c2cc(OC)ccc2OC)c1`, the Potency is reported as “inactive”.
With `COC(=O)[C@]1(CC(C)C)N[C@H](c2ccc(-c3ccc4c(c3)OCO4)cc2)[C@@H]2C(=O)N(C)C(=O)[C@@H]21` the Potency was inconclusive: 29.1 µM [inhibitor, single point].
With `CCOc1ccccc1CNc1ccc2cc(S(=O)(=O)N3CCC(C)CC3)ccc2n1` the Potency was active: 23.1 µM.
With `Cc1cccc(Nc2nnc(SCC(=O)c3ccc(Br)s3)s2)c1C` the Potency was inconclusive: 29.1 µM [inhibitor, single point].
For `Cc1cccc(N/N=C/c2ccncc2)c1`, the activity change, negative = growth inhibition was inconclusive: -30.6% [inhibitor].
In the case of `COc1cccc(C2=CC(=O)C[C@H](c3ccc(OC)c(OC)c3)C2)c1`, the Potency is reported as inconclusive: 18.4 µM [inhibitor, single point].
For `CC(C)(C)n1nnnc1C(c1cc2ccccc2o1)N(CCC#N)Cc1ccccc1` (centres undefined), the Potency was inconclusive: 25.9 µM [inhibitor, single point].
In the case of `O=[N+]([O-])c1ccccc1C=NNC(=S)NN=Cc1ccccc1[N+](=O)[O-]`, the Potency is reported as active: 3.26 µM.
In the case of `COC(=O)c1ccc2c(=O)n(CCCCCC(=O)N3CCN(c4ccc(F)cc4)CC3)c(=O)[nH]c2c1`, the Potency is reported as active: 11.6 µM.
With `CC1=CC(=C2C(=O)c3ccccc3C2=O)C=C(C)N1C` the Potency was inconclusive: 29.1 µM [inhibitor, single point].
For `CCOC(=O)C1CCN(C(=O)COc2ccc(N(C)S(=O)(=O)c3ccc(C)cc3)cc2)CC1`, the activity change, negative = growth inhibition was inconclusive: -30.9% [inhibitor].
With `CCCCCN(C(=O)CCC(=O)OCc1ccccc1F)c1c(N)n(CCCC)c(=O)[nH]c1=O` the Potency was “inactive”.
With `CS(=O)(=O)c1ccc(C(=O)Nc2ccc(S(=O)(=O)N3CCCCC3)cc2)cc1` the Potency was inconclusive: 16.4 µM [inhibitor, single point].
In the case of `Cc1cnc2ccccc2c1/C=C/c1ccc(N(C)C)cc1`, the Potency is reported as inconclusive: 25.1 µM [inhibitor, single point].
For `C#CCNC(=O)C[C@@H]1C[C@@]2(C(=O)OC)CC(C)(C)CC=C2N(CCCCCCCC)C1=O`, the Potency was active: 16.4 µM.
In the case of `CCOc1ccc(S(=O)(=O)N2CCCC(C(=O)Nc3cccc(C)c3)C2)cc1` (centres undefined), the Potency is reported as inconclusive: 20.6 µM [inhibitor, partial curve].
With `COc1ccc(S(=O)(=O)N2CCCCC2)cc1NS(=O)(=O)c1cc(Cl)ccc1Cl` the Potency was “inactive”.
For `COc1ccc(C(=O)CCN2CCN(c3ccccc3OC)CC2)cc1`, the Potency was active: 5.17 µM.
For `COc1cc(/C=C/C(=O)OCC(=O)Nc2cc(S(=O)(=O)N3CCCCC3)ccc2C)ccc1O`, the Potency was inconclusive: 29.1 µM [inhibitor, single point].
With `CCCOc1cccc(C(=O)N(Cc2ccccc2)C2CCS(=O)(=O)C2)c1` (centres undefined) the Potency was inconclusive: 23.1 µM [inhibitor, single point].
With `CC(C)CN(C(=O)COC(=O)CCC(=O)c1ccc(F)cc1)c1c(N)n(Cc2ccccc2)c(=O)[nH]c1=O` the Potency was “inactive”.
With `Cc1ccccc1S(=O)(=O)Cc1ccc(C(=O)NC2CCC(C)CC2)o1` (centres undefined) the Potency was inconclusive: 32.6 µM [inhibitor, single point] and inconclusive: 16.4 µM [inhibitor, single point].
With `CCOc1ccc(NC(=O)Cn2c(=O)n(-c3ccccc3)c(=O)c3ccc(C(=O)NCc4ccc5c(c4)OCO5)cc32)cc1` the Potency was active: 20.6 µM.
In the case of `Cc1ccc2nc(-c3ccc(SCC(=O)Nc4nc(C)cs4)nc3)[nH]c2c1`, the Potency is reported as active: 10.3 µM.
With `COc1cc(-c2noc(C)c2C(=O)NCCCn2ccnc2)cc(OC)c1OC` the Potency was “inactive”.
In the case of `CCOC(=O)c1ccccc1NS(=O)(=O)c1ccccc1F`, the Potency is reported as inconclusive: 10 µM [inhibitor, partial curve].
With `CCC(C(=O)Nc1ccncc1)c1ccccc1` (centres undefined) the Potency was active: 16.4 µM.
For `O=C(O)/C=C(\Oc1ccccc1)C1(O)CCCCC1`, the Potency was “inactive”.
In the case of `COc1ccccc1C1CC(c2ccco2)=NN1c1ccccc1` (centres undefined), the Potency is reported as inconclusive: 10.3 µM [inhibitor, partial curve].
For `Cc1ccc(Cn2c(=O)c3c(nc4n3CCN4Cc3ccco3)n(C)c2=O)cc1`, the Potency was inconclusive: 23.1 µM [inhibitor, single point].
For `Cc1ccc(CNC(=O)c2sccc2-n2cccc2)cc1`, the Potency was inconclusive: 29.1 µM [inhibitor, single point].
With `CCc1ccc(-n2c(C)cc(/C=N/NC(=O)c3ccncc3)c2C)cc1` the Potency was inconclusive: 20.6 µM [inhibitor, single point].
With `N#Cc1c(F)cccc1NCc1cccnc1` the Potency was “inactive”.
In the case of `O=C(NCc1ccco1)C1CC(=O)N(c2ccc(O)cc2)C1` (centres undefined), the Potency is reported as active: 25.9 µM.
With `CCOc1ccc(-n2c(SCC(=O)NCc3ccco3)nc3ccccc3c2=O)cc1` the Potency was inconclusive: 29.1 µM [inhibitor, single point].
For `O=C(O)/C=C/c1ccc(S(=O)(=O)NCc2ccco2)cc1`, the Potency was “inactive”.
In the case of `O=c1c(-c2ccccc2)coc2c(CN3CCOCC3)c(O)ccc12`, the Potency is reported as “inactive”.
In the case of `Cc1ccc2oc(-c3cccc(NC(=O)Cc4cccs4)c3)nc2c1`, the Potency is reported as “inactive”.
In the case of `O=C(Nc1cccc(S(=O)(=O)N2CCCC2)c1)c1cc(-c2ccccn2)nc2ccccc12`, the Potency is reported as active: 20.6 µM.
In the case of `O=C1[C@@H]2[C@H](C(=O)N1Cc1cccnc1)[C@H]1C=C[C@@H]2C1`, the Potency is reported as “inactive”.
With `Cc1noc(C)c1COc1ccccc1C(=O)N1CCN(c2cccc(Cl)c2)CC1` the Potency was inconclusive: 29.1 µM [inhibitor, single point].
For `CCOc1ccc(C(=O)Nc2nc(C)c(C(=O)OC)s2)cc1`, the Potency was “inactive”.
In the case of `CC(C)N1CCN(Cc2ccc(-c3ccccc3)cc2)CC1CCO` (centres undefined), the Potency is reported as inconclusive: 25.9 µM [inhibitor, single point].
